# In paper PMC7819943, “Rice protein-binding microarrays: a tool to detect cis-acting elements near promoter regions in rice”:
# This is one part of the list.
# Biological target: T1, OsWOX13 (Oryza sativa, UniProt Q5QMM3 1-267)
# T1 sequence: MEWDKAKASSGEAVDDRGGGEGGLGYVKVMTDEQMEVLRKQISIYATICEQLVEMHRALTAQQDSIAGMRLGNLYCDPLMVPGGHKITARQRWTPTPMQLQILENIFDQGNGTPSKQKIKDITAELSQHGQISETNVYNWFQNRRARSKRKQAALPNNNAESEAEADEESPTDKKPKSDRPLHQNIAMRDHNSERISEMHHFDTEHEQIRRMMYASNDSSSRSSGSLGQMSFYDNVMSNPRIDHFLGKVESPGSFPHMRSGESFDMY
# Test: protein-binding microarray (RPBM); PBS, 2% BSA, 51.3 ng/ul salmon testes DNA, 50 uM zinc acetate, 200 nM TF, 25 C, 1 h; high values mean tight binding
# Conditions: protein: recombinant; tags: N-terminal polyhistidine and DsRed monomer fusion (pET32a); label: CyDye5-dUTP incorporated in the synthesized complementary strand; 3' TTTTT single-stranded linker to array surface; dsDNA, one strand shown
# How it was run: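 The binding signal is fluorescence intensity per feature, in arbitrary units, read on an Axon 4000B scanner. Polyhistidine- and DsRed-tagged transcription factors (N-terminal fusions) from E. coli BL21-CodonPlus were purified on Ni–NTA and applied at 200 nM for 1 h at 25 °C to a double-stranded, BSA-blocked custom Agilent array in buffer with 50 µM zinc acetate.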
row,Sequence,binding signal
1,GGGTGCAATTAATTAATCATCTATCTATATTTTGCTCAAACGGAGTCACCTAGTGCAG,29500 fluorescence intensity (a.u.)
2,CTAATTACACAGATTGTGACTAATTTGTGAGACGAATCTTCGGAGTCACCTAGTGCAG,37900 fluorescence intensity (a.u.)
3,GATCAAATTAATAGGTAACCCGCTGGTCAAACCTATGGGTCGGAGTCACCTAGTGCAG,18000 fluorescence intensity (a.u.)
4,AGCGTGACTGCAATTTAAAACGATTAAAATAACATTCAACCGGAGTCACCTAGTGCAG,11800 fluorescence intensity (a.u.)
5,GCAATTAACTCACTCTGCTTTAGCTGATTAAGTTGGTCGTCGGAGTCACCTAGTGCAG,5290 fluorescence intensity (a.u.)
6,GCCATTGACAGCGTTGACCAAGTCAGCCGCTCCAGCCTCTCGGAGTCACCTAGTGCAG,5360 fluorescence intensity (a.u.)
7,AATCGACTGATGGATTAAAATTTGGGATCACCTGTATATTCGGAGTCACCTAGTGCAG,8420 fluorescence intensity (a.u.)
8,TAATCGTTACAAATTTCAGTGATTGCCCTGAGCGTATTAACGGAGTCACCTAGTGCAG,6610 fluorescence intensity (a.u.)
9,ATTTCCCAATTAATGAGTCTTAGTCCATGGGTATAGACAACGGAGTCACCTAGTGCAG,5860 fluorescence intensity (a.u.)
10,AAAATGATAGGATTTTCACATATTTACTCTCTTAAATCTGCGGAGTCACCTAGTGCAG,5010 fluorescence intensity (a.u.)
11,GCTGTCTTGCTGATTGATATGCATACGGCGCCGGAGATGACGGAGTCACCTAGTGCAG,14200 fluorescence intensity (a.u.)
12,TGCTTTTCATGTTTATTGATTTAGGCGCACCTGTTCTGTTCGGAGTCACCTAGTGCAG,3190 fluorescence intensity (a.u.)
13,TTAAATGTTGACGTTTGATGAGACAAGTAGTACTATATAGCGGAGTCACCTAGTGCAG,3900 fluorescence intensity (a.u.)
14,ATAAATTAACTCCACACCTCCTCCTTTATCTTCAAATCTCCGGAGTCACCTAGTGCAG,7860 fluorescence intensity (a.u.)
15,GGTGAAATGAAGGGATAATTAATTGAGAGAAAATTAAGCACGGAGTCACCTAGTGCAG,21300 fluorescence intensity (a.u.)
16,TCTTAATGACATAGGGGTAAAAGACTCTAATAAATTTGTCCGGAGTCACCTAGTGCAG,6870 fluorescence intensity (a.u.)
17,CCCAGTCTATCCATCCAATTAACCAACTTAACGACCATTGCGGAGTCACCTAGTGCAG,12100 fluorescence intensity (a.u.)
18,CTGTAGATGAAAATCAAATTGAGACACCTAAAGTGAACCTCGGAGTCACCTAGTGCAG,4470 fluorescence intensity (a.u.)
19,TATAAACAATTAACCTATATATCTAAGTGCTGATTTAACCCGGAGTCACCTAGTGCAG,3960 fluorescence intensity (a.u.)
20,AAAGATTAAAGTTTAGTCCATAAATGCAAACATTGACACCCGGAGTCACCTAGTGCAG,3880 fluorescence intensity (a.u.)
21,CACCAATTAACTTAGCCACTTATGATTCACAAAGATAAGACGGAGTCACCTAGTGCAG,8860 fluorescence intensity (a.u.)

row,Sequence,binding signal
1,ATAATTGTTCAGATTACAGTAATGCTGCAATAAACACTTACGGAGTCACCTAGTGCAG,9090 fluorescence intensity (a.u.)
2,CAAAACAACATAATTGAGCATCCGGCTGCATGCATCGGTCCGGAGTCACCTAGTGCAG,13500 fluorescence intensity (a.u.)
3,AGCAAAATGATTGCCAGATGACAAGATGCCAATGAAAATGCGGAGTCACCTAGTGCAG,26700 fluorescence intensity (a.u.)
4,GAAATTGCCAAATGGACAGGTTTGGCTGAATTGGATCTGTCGGAGTCACCTAGTGCAG,7770 fluorescence intensity (a.u.)
5,CAACATTGGCAAGTTAATTGATCGCAGATCGTTTTATCACCGGAGTCACCTAGTGCAG,23000 fluorescence intensity (a.u.)
6,GCACCCATGCTGATTAGCCGCTGCTTAGCAATTGATTATGCGGAGTCACCTAGTGCAG,5910 fluorescence intensity (a.u.)
7,CCCCTATTTTGTTACCTCATTATTCTCGTATTCCCCTTTTCGGAGTCACCTAGTGCAG,3830 fluorescence intensity (a.u.)
8,CTGGGGATTGGCTGAGGACGGCGAGGGGAGCGGGAGTGGCCGGAGTCACCTAGTGCAG,9980 fluorescence intensity (a.u.)
9,ATATCAAATATCAAATCAATGGTCTTTAAACATTCATCTTCGGAGTCACCTAGTGCAG,3160 fluorescence intensity (a.u.)
10,TTAAAATTAAGCGCATTAATCATTCGTTTGTTTTGCTTGCCGGAGTCACCTAGTGCAG,8230 fluorescence intensity (a.u.)
11,ATAGATTGCGTGTTTAATGGATTTATTGTCTCTATTACTTCGGAGTCACCTAGTGCAG,19800 fluorescence intensity (a.u.)
12,ATGACAAACTGGTTTTGGGGCCAAAATGTTATCGATTGCTCGGAGTCACCTAGTGCAG,3570 fluorescence intensity (a.u.)
13,GCTAATTTGCGATGCTTCACATGCAGGCCAACCCTGACACCGGAGTCACCTAGTGCAG,14700 fluorescence intensity (a.u.)
14,GTTTTATTTTAGACACCAATCATGCTATAGATTAGGGCCTCGGAGTCACCTAGTGCAG,12400 fluorescence intensity (a.u.)
15,AGTAATAACTGGGCCAAATTTTAGTGGCAGTAATATTTTGCGGAGTCACCTAGTGCAG,5680 fluorescence intensity (a.u.)
16,CATGATTGTCACTTACCTTGCCTTCCTCAATCTTGGGATTCGGAGTCACCTAGTGCAG,48500 fluorescence intensity (a.u.)
17,ATTAGATTGAAAATATCTCAAAATTAAGTTTGAAAATTTACGGAGTCACCTAGTGCAG,12900 fluorescence intensity (a.u.)
18,GGTTAATTTCCCTCATGAGTATATGCCTGAAATTTTGGATCGGAGTCACCTAGTGCAG,20200 fluorescence intensity (a.u.)
19,CTAATTAGGTCCAGGACATTAAATGGGTTGATTACGTCACCGGAGTCACCTAGTGCAG,8450 fluorescence intensity (a.u.)
20,TACTAATCATTTGTCGAAAGAAAAGTCTTTTGCTTCGCTGCGGAGTCACCTAGTGCAG,7180 fluorescence intensity (a.u.)
21,ATACTCTAGATAATAATTATTAATGTGTAATGATATGATGCGGAGTCACCTAGTGCAG,6700 fluorescence intensity (a.u.)
